Laboratory results taken from patent US20260062452A1 (CYTIVA BIOPROCESS R AND D, published 2026).

Biological target: T1, trastuzumab Fc fragment (Homo sapiens (Human), UniProt P0DOX5, in part = IgG part)
T1 construct: also called Fc region of trastuzumab
Experiment: SPR (Biacore 8K+), polypeptide immobilised on CM5 chip, trastuzumab Fc fragment 5000 nM as analyte, 600 s injection, 600 s dissociation

Binder	binding result
VH3 binding polypeptide Fr32 (SEQ ID NO:14) (designed binder) VDAKFDKEAYRALAEIARLPNLTEEQRAAFIQSLKDDPSVSKAILAEAKKLNDAQAPK	no binding (tested: 5000 nM)
VH3 binding polypeptide Fr33 (SEQ ID NO:15) (designed binder) VDAKFDKEAYRALAEIARLPNLTEEQRAGFIQSLKDDPSVSKAILAEAKKLNDAQAPK	no binding (tested: 5000 nM)
